The results in this text go back to ChEMBL document CHEMBL4888484, “Replenishing the malaria drug discovery pipeline: Screening and hit evaluation of the MMV Hit Generation Library 1 (HGL1) against asexual blood stage Plasmodium falciparum ,using a nano luciferase reporter read-out” (2022).

The whole screen tested about 150,000 compounds, of which about 540 (0.36%) showed an effect of 50% or more. Some of the results follow.

The % Inhibition is the drop in the measured response relative to a control, in per cent.

This assay relates to Plasmodium falciparum. Description: Primary screen in NF54 nanoGlo assay, in single point, at 2uM, 72h; a lower Z score goes with more inhibition. It is filed as functional, Erythrocyte. The settings on record: timepoint 72 hour.
Take `CC1CCC(NC(=O)c2csc3c2CCCC3)CC1` (stereo unspecified): the “% Inhibition” value is given as -15% and the Z score came out at 1.89.
On the same counts, the results for `c1cc(CCNc2nc(C3CCCC3)nc3c2CCOCC3)ccn1` are 4% and -0.39.
`CC(C)[C@H](C)NC(=O)CN(C)c1cnccn1`: the “% Inhibition” value is reported as -1% and the Z score is 0.15.
On the same counts, the results for `O=C(Cc1cccs1)NC[C@H]1CN(c2ccccc2)C(=O)O1` are -12% and 1.33.
On the same counts, the results for `COc1ccccc1NC(=O)Nc1ccc(N2CCCC2=O)c(C)c1` are -11% and 1.62.
The like results for `COc1c(Cl)cccc1NCC(=O)Nc1cc(C)nn1C` were, in that order, -7% and 0.71.
As for `CCC(CC)n1nccc1C(=O)N1CCC2(CCN(C)CC2)C1`, the “% Inhibition” value is on record as -1% and the Z score is given as 0.13.
In the case of `C=CCC[C@@H](CN(C)CC(=O)N(C)C)Oc1ccnc(OC)c1C#N`, the “% Inhibition” value was -7% and the Z score turned out to be 1.19.
Take `Cc1cc(C2CCC(C(=O)NCc3ccccn3)CN2C(=O)NCc2ccccc2)ccc1F` (stereo unspecified): the “% Inhibition” value is given as -2% and the Z score worked out at 0.31.
On the same counts, the results for `Cc1cc(=O)c2cccc(C(=O)NCCN3CCC[C@H](C(N)=O)C3)c2[nH]1` are 1% and -0.1.
The like results for `Cc1nc2ccccc2nc1N1CCC2(CC1)OCCO2` were, in that order, -11% and 1.78.
Turning to `Cc1nc(N)nc(N2CCC(Oc3ccc(F)cc3)CC2)c1CCC(=O)O`, the “% Inhibition” value was -13% and the Z score was 1.26.
Regarding `CCOc1ccc2c(n1)CCN(C(=O)c1ccc(OC)cc1)C2`, the “% Inhibition” value stood at 36% and the Z score was -5.21.
The like results for `Cc1noc(C)c1Cn1nnnc1C=Cc1ccccc1` were, in that order, 0% and -0.05.
The like results for `CCCc1cnc(NC2CCN(C(=O)CC)CC2)nc1` were, in that order, -7% and 1.31.
On the same counts, the results for `Cc1ccc(Cl)cc1NC(=O)c1ccnc(-c2ccsc2)c1` are -2% and 0.32.
On to `N[C@H](C(=O)N1CCC2(CC1)Cc1cn(nn1)CCCNC(=O)[C@H](Cc1ccccc1)NC2=O)C1CCCCC1`, for which the “% Inhibition” value came to 3% and the Z score was -0.5.
Regarding `N#Cc1ccc(OCC(O)CN2CCCC2c2cccs2)cc1` (stereo unspecified), the “% Inhibition” value is -7% and the Z score turned out to be 1.02.
On the same counts, the results for `Cc1ccc(Cc2nsc(NCCc3ccc(Cl)cc3Cl)n2)cc1` are -13% and 1.44.
The like results for `CCCn1nccc1-c1cnn(CC(=O)NC)c1` were, in that order, -14% and 1.27.
The like results for `C[C@H](O)CNC(=O)C1CCCC(F)(F)C1` (stereo partly specified) were, in that order, -5% and 1.06.
As for `C[C@H](Nc1nnc(-c2ccon2)s1)C1(S(C)(=O)=O)CC1`, the “% Inhibition” value is listed as -11% and the Z score is given as 1.4.
The like results for `CC(C)Cn1cc(C(F)F)c(C(=O)N2CCCN(C(C)C)CC2)n1` were, in that order, 0% and -0.02.
On the same counts, the results for `Cc1ccnc(-n2nccc2NC(=O)NCCc2c[nH]c3ccccc23)c1` are -9% and 1.02.
With `O=C1C[C@H](NS(=O)(=O)Cc2ccccc2)CN1C1CC1`, the “% Inhibition” value is -10% and the Z score stood at 1.48.
Consider `CC(C)c1nn(C)cc1-c1ccc(C(F)(F)F)nc1O`, for which the “% Inhibition” value was 2% and the Z score is -0.19.
The like results for `N#Cc1ccc(CN2CCC[C@H]2c2ccncc2)c(F)c1` were, in that order, -3% and 0.55.
The like results for `O=C1CNC(=O)N1Cc1nc(C2CCC(F)(F)CC2)cs1` were, in that order, -15% and 2.79.
On the same counts, the results for `O=C(N1CCOCC1)[C@]1(F)CCCN(Cc2cccnc2)C1` are -15% and 1.29.
`CC(C)c1ccc(C(=O)NC2CCN(c3nnnn3C)CC2)c(O)c1`: the “% Inhibition” value stood at 0% and the Z score came to 0.02.
The like results for `COc1ccc(C(Nc2nc(C)c3c(n2)CCCC3)[C@H]2C[C@H](O)C2)cn1` (stereo partly specified) were, in that order, 5% and -0.91.
As for `CC(=O)N(c1nc(C=Cc2ccncn2)cs1)C1CC1`, the “% Inhibition” value is listed as 0% and the Z score was -0.02.
The like results for `COCc1nc(C(C)C)nc(N2CCN(C(=O)c3cccs3)CC2)c1Cc1cc(C)ccc1C` were, in that order, -1% and 0.2.
On to `CCc1cc(C(=O)N2CC(C)OCC2C)[nH]n1` (stereo unspecified), for which the “% Inhibition” value came to 34% and the Z score is recorded as -3.88.
On the same counts, the results for `CCS(=O)(=O)NCCNc1ccc(C)nn1` are 15% and -2.03.
The like results for `CC(C)(C1=CCCCC1)c1noc(C2(S(C)(=O)=O)CCCC2)n1` were, in that order, -1% and 0.17.
Turning to `CCOC(=O)CC1(S(=O)(=O)Nc2cccc3ccccc23)CC1`, the “% Inhibition” value came to 35% and the Z score is on record as -5.06.
On the same counts, the results for `COCC(C)(C)c1noc([C@@H]2Cc3ccccc3O[C@H]2C(F)F)n1` are -7% and 1.25.
Consider `O=C(NCCCc1ccccc1)N1CCC[C@@H]1CS(=O)(=O)c1ccccc1`, for which the “% Inhibition” value is -4% and the Z score turned out to be 0.69.
The like results for `CC(C)OCc1cccc(NC(=O)N2CC[S@+]([O-])C(C)(C)C2)c1` were, in that order, -14% and 1.72.
For the compound `Cc1cc(C(=O)NCCOCC(N)=O)cc(Cl)c1Br`, the “% Inhibition” value is recorded as -22% and the Z score is on record as 1.97.
In the case of `CCc1ccc(NC(=O)c2ccc(N3CC(C)CC(C)C3)c(NS(=O)(=O)c3c(C)cc(C)cc3C)c2)cc1` (stereo unspecified), the “% Inhibition” value is given as -4% and the Z score was 0.45.
On the same counts, the results for `CC(C)CN1CCCCC1CNC(C)c1cnccn1` (stereo unspecified) are 0% and -0.03.
